# According to PubChem BioAssay AID1240 (Sanford-Burnham Center for Chemical Genomics, 2008):
# The whole screen tested about 50,000 compounds, of which about 800 (1.6%) showed an effect of 50% or more. This is one part of the list.
# Target: Bcl-2-like protein 10 (Homo sapiens) (UniProt Q9HD36)
# Test: TR3 peptide-Bcl-B binding displacers, biochemical primary FP assay, phenotype converters (AID 1240);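 note: 0% = Bcl-B with tracer peptide and DMSO and 100% = tracer peptide lacking Bcl-B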
# Details: GST-Bcl-B / FITC-TR3 peptide fluorescence polarization; stronger effect = higher value; compound at 3.75 mg/L
# UniProt Q9HD36, sequence (Q9HD36 whole entry, looked up): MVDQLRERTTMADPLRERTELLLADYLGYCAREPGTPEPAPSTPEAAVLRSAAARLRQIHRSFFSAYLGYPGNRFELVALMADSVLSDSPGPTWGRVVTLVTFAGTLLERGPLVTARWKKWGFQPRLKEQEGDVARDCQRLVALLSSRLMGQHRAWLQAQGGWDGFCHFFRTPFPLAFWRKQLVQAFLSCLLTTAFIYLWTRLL
row,Structure (SMILES),displacement
1,c1ccc2c(c1)ccc1nnc(-c3ccc4c(c3)OCO4)n12,7.3%
2,N#Cc1c(N)nc2c(c1-c1ccc(F)cc1)CCCCC2,3.8%
3,CCN(CC)c1ccc(/C=C(\C#N)c2nn(CCO)c(N)c2C#N)cc1,68.2%
4,O=C(O/C(=C/c1nccn1Cc1ccc(Cl)cc1)c1ccccc1)c1ccccc1,-1.2%
5,COc1ccc(C2SCC(=O)N2c2ccc(Cl)cc2)cc1 (stereo unspecified),-2.1%
6,CCN1C(=O)/C(=C\c2ccc(C)cc2)C(C(=O)OC)=C1C,86.2%
7,COc1ccc(N2CC(C(=O)N/N=C/c3ccc(OC)c(OC)c3)CC2=O)cc1 (stereo unspecified),0.8%
8,Cc1ccc(-n2cnc3c(sc4nccc(N(C)C)c43)c2=O)cc1,-9.5%
9,O=C(NCC1CCCO1)c1ccc(I)cc1 (stereo unspecified),8.5%
10,COC(=O)C1=C(C)N(CC2CCCO2)C(=O)/C1=C\c1ccccc1OC (stereo unspecified),5.6%
11,CCc1cc2c(=O)n(-c3ccccc3)c(SCC(=O)c3ccc(Cl)cc3)nc2s1,2.8%
12,Cc1nc(N(CCC(N)=O)CCC(N)=O)sc1C,5.9%
13,Cc1cc(C)c(S(=O)(=O)Nc2ccc(Cl)c3cccnc23)c(C)c1,4.4%
14,CC(C)c1ccc(NC(=O)C(=O)NCc2ccco2)cc1,-10.4%
15,Cc1cccc(Cl)c1NC(=O)C1CC(=O)N(c2ccc(F)cc2)C1 (stereo unspecified),6.4%
16,O=C1C2C(C(=O)N1c1ccc(Br)cc1)N1CCCN1C2c1cccc([N+](=O)[O-])c1 (stereo unspecified),-3.8%

row,Structure (SMILES),displacement
1,Cc1cc(N2CCOCC2)c2c(c1)c1ccccc1n2C,11.4%
2,Cc1ccc(N2C(=O)c3ccccc3NC2c2ccccc2)cc1Cl (stereo unspecified),5.8%
3,C=C(C)c1cccc(C(C)(C)NC(=O)NCCc2ccc(S(N)(=O)=O)cc2)c1,10.6%
4,COCCOC(=O)C1=C(C)NC(=O)CC1c1cccc(Cl)c1Cl (stereo unspecified),-7.8%
5,O=C1Oc2ccc(Cl)cc2C1c1ccccc1 (stereo unspecified),11.6%
6,COc1ccc(C=Nc2ccc(C)c(F)c2)cc1OC,-5.3%
7,COCCNC(=O)c1cccc([N+](=O)[O-])c1C,2%
8,COc1ccccc1CC1CC(=O)N(c2ccc(Cl)c(Cl)c2)C1=O (stereo unspecified),14.2%
9,CCCOc1ccc(/C=N/Nc2nc(C)cc(-c3ccccc3)n2)c(O)c1,-3.8%
10,CCCCNC(=O)c1c(O)c2ccccc2n(C)c1=O,-2.6%
11,O=C(Nc1cc(-c2ccc(F)cc2)[nH]n1)c1ccc(Br)cc1,13.7%
12,O=C(N/N=C/c1ccncc1)c1ccco1,2.5%
13,Cc1cc(C)n(C(=O)CN2C(=O)c3ccccc3C2=O)n1,4.4%
14,O=C1/C(=C\c2cc3c(cc2[N+](=O)[O-])OCO3)SC(=S)N1c1ccccc1,7.1%
15,CCCCCOC(=O)C1=C(C)NC2=C(C(=O)CC(C)(C)C2)C1c1cccc(Cl)c1 (stereo unspecified),3.7%
